{"source": "the BET-seq Pho4 binding data (Le et al. 2018)", "note": "This is one part of the list. Values were computed here from the reads of four pooled replicates and scatter widely.", "data": [{"target": "T1, Pho4 (S. cerevisiae) (UniProt P07270)", "T1 sequence": "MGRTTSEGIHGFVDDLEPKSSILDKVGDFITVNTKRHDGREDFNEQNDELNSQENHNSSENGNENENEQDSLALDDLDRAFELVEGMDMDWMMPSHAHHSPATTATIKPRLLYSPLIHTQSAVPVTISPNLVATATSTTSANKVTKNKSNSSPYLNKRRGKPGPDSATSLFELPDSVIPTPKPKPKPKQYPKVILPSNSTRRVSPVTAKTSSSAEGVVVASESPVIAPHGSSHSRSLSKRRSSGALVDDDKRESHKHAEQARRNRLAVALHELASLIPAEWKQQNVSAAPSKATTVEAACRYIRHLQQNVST", "experiment": "relative binding free energy (BET-seq); higher = weaker binding", "settings": "reference: library average", "units": {"relative binding free energy": "kcal/mol"}, "values": [{"sequence": "TTTGGCACGTGACGTG", "relative binding free energy": -0.04}, {"sequence": "TTTGTCACGTGGATTG", "relative binding free energy": 0.13}, {"sequence": "TTTGTCACGTGAGCAT", "relative binding free energy": 0.16}, {"sequence": "TCGAGCACGTGGGATG", "relative binding free energy": -0.22}, {"sequence": "CGTTGCACGTGTAGTT", "relative binding free energy": 0.12}, {"sequence": "CATTGCACGTGGTCGG", "relative binding free energy": -0.1}, {"sequence": "TAAAGCACGTGTGGGT", "relative binding free energy": -0.15}, {"sequence": "TGATTCACGTGTATAT", "relative binding free energy": 0.33}, {"sequence": "TTAGTCACGTGGACGT", "relative binding free energy": 0.11}, {"sequence": "TTTAACACGTGATTTG", "relative binding free energy": 0.17}, {"sequence": "CTGTTCACGTGAGGGC", "relative binding free energy": 0.28}, {"sequence": "GCGTTCACGTGAGGGG", "relative binding free energy": 0.42}, {"sequence": "GCTGACACGTGGGGGC", "relative binding free energy": -0.05}, {"sequence": "TGACTCACGTGGGCGT", "relative binding free energy": 0.03}, {"sequence": "GGGGACACGTGCAGGG", "relative binding free energy": 0.01}, {"sequence": "TAGGTCACGTGTGCGC", "relative binding free energy": 0.15}, {"sequence": "TTTATCACGTGTGCAG", "relative binding free energy": 0.05}, {"sequence": "TTTTGCACGTGAGCTA", "relative binding free energy": 0.27}, {"sequence": "TGAAGCACGTGGGTTA", "relative binding free energy": -0.2}, {"sequence": "TAAGTCACGTGACATG", "relative binding free energy": 0.21}, {"sequence": "GTTGACACGTGGCTAG", "relative binding free energy": 0.13}, {"sequence": "GGTCGCACGTGAGTGT", "relative binding free energy": 0.09}, {"sequence": "ATTTTCACGTGGGCCA", "relative binding free energy": 0.21}, {"sequence": "TGTGTCACGTGCTCGG", "relative binding free energy": 0.03}, {"sequence": "TGGGTCACGTGGCGAG", "relative binding free energy": 0.05}, {"sequence": "GAGTTCACGTGGAGCG", "relative binding free energy": 0.38}, {"sequence": "TTCTACACGTGGGTCG", "relative binding free energy": 0.1}, {"sequence": "ATTATCACGTGAAATG", "relative binding free energy": 0.32}, {"sequence": "GTTTGCACGTGGAATA", "relative binding free energy": 0.14}, {"sequence": "ATTAACACGTGGTGCG", "relative binding free energy": -0.14}, {"sequence": "CATTGCACGTGTTATG", "relative binding free energy": 0.07}, {"sequence": "AGGACCACGTGGTAGG", "relative binding free energy": -0.2}, {"sequence": "TAATGCACGTGAATTT", "relative binding free energy": 0.09}, {"sequence": "GAATGCACGTGAGGTT", "relative binding free energy": 0.33}, {"sequence": "ACTGACACGTGTGTGA", "relative binding free energy": 0.1}, {"sequence": "ATGTGCACGTGGATAA", "relative binding free energy": -0.06}, {"sequence": "GGTTGCACGTGGTCGC", "relative binding free energy": -0.17}, {"sequence": "GCTTTCACGTGCGGGT", "relative binding free energy": 0.23}, {"sequence": "AATAGCACGTGAGGTA", "relative binding free energy": 0.12}, {"sequence": "ACGGGCACGTGAAGGT", "relative binding free energy": -0.01}, {"sequence": "GAGTTCACGTGTGAGT", "relative binding free energy": 0.47}, {"sequence": "GGGATCACGTGGGTCG", "relative binding free energy": 0.08}, {"sequence": "CTGGTCACGTGATTTG", "relative binding free energy": 0.18}, {"sequence": "AAGTTCACGTGATGCT", "relative binding free energy": 0.34}, {"sequence": "TGAGGCACGTGTGGTA", "relative binding free energy": 0.08}, {"sequence": "CTTAACACGTGGTGGT", "relative binding free energy": -0.2}, {"sequence": "GTCGGCACGTGAGGTC", "relative binding free energy": 0.24}, {"sequence": "TTTGTCACGTGAATGA", "relative binding free energy": 0.26}, {"sequence": "GTCATCACGTGTGTGG", "relative binding free energy": 0.26}, {"sequence": "AGAGACACGTGTTGCT", "relative binding free energy": 0.13}, {"sequence": "GCTGTCACGTGGAGTG", "relative binding free energy": 0.07}, {"sequence": "GGTAACACGTGGCAGG", "relative binding free energy": -0.16}, {"sequence": "TTGGGCACGTGTCAAA", "relative binding free energy": 0}, {"sequence": "GGCTGCACGTGATGAG", "relative binding free energy": 0.19}, {"sequence": "TTTGGCACGTGTATCG", "relative binding free energy": -0.01}, {"sequence": "TTATACACGTGGTTCT", "relative binding free energy": -0.02}, {"sequence": "GATTTCACGTGAATTG", "relative binding free energy": 0.31}, {"sequence": "ACATGCACGTGTCGGG", "relative binding free energy": 0.07}, {"sequence": "TTTGCCACGTGGTAGC", "relative binding free energy": -0.08}, {"sequence": "CATTTCACGTGGGAGT", "relative binding free energy": 0.28}, {"sequence": "GGTGCCACGTGAGGTG", "relative binding free energy": 0.17}, {"sequence": "GTTGGCACGTGTAACG", "relative binding free energy": 0.14}, {"sequence": "GAGTTCACGTGTTTAG", "relative binding free energy": 0.27}, {"sequence": "GAGGCCACGTGGGGAT", "relative binding free energy": -0.16}, {"sequence": "TCGGGCACGTGTAGTG", "relative binding free energy": -0.09}, {"sequence": "TTGGCCACGTGATGTG", "relative binding free energy": 0.09}, {"sequence": "GTGGTCACGTGCTGCT", "relative binding free energy": 0.05}, {"sequence": "TTATGCACGTGTTGAG", "relative binding free energy": -0.05}, {"sequence": "TCTTACACGTGGATGG", "relative binding free energy": 0.32}, {"sequence": "GTGGCCACGTGGGAAT", "relative binding free energy": -0.1}, {"sequence": "TGTATCACGTGGACAG", "relative binding free energy": 0.1}, {"sequence": "TTAGGCACGTGGCTGA", "relative binding free energy": -0.14}, {"sequence": "GCGATCACGTGGGGGA", "relative binding free energy": 0.2}, {"sequence": "GCCTTCACGTGTGTGA", "relative binding free energy": 0.4}, {"sequence": "ATAATCACGTGTTCTT", "relative binding free energy": 0.18}, {"sequence": "TTAAACACGTGATAAG", "relative binding free energy": 0.17}, {"sequence": "AGGGACACGTGGCGAT", "relative binding free energy": -0.01}, {"sequence": "TCGGGCACGTGGGGGG", "relative binding free energy": -0.12}, {"sequence": "AGGATCACGTGTTATG", "relative binding free energy": 0.22}, {"sequence": "CTTAACACGTGGGTGT", "relative binding free energy": -0.24}, {"sequence": "AAGCTCACGTGAGTTT", "relative binding free energy": 0.53}, {"sequence": "GTGTTCACGTGTTAAC", "relative binding free energy": 0.4}, {"sequence": "GCGGTCACGTGATGGG", "relative binding free energy": 0.28}, {"sequence": "GACGGCACGTGGCGGG", "relative binding free energy": -0.19}, {"sequence": "TCTGTCACGTGCGGAT", "relative binding free energy": 0.06}, {"sequence": "CGAGGCACGTGGGTCG", "relative binding free energy": -0.4}, {"sequence": "AGAGTCACGTGAATTT", "relative binding free energy": 0.24}, {"sequence": "TAGTACACGTGTGCTT", "relative binding free energy": -0.01}, {"sequence": "GTGTGCACGTGTGATG", "relative binding free energy": 0.14}, {"sequence": "AATATCACGTGATCGT", "relative binding free energy": 0.26}, {"sequence": "TGATACACGTGAAGGG", "relative binding free energy": 0.4}, {"sequence": "GGTAACACGTGGCGCG", "relative binding free energy": 0}, {"sequence": "TATGTCACGTGTTGTT", "relative binding free energy": 0.12}, {"sequence": "GTTCACACGTGGAGAG", "relative binding free energy": 0.25}, {"sequence": "AATGTCACGTGGCGTG", "relative binding free energy": 0.01}, {"sequence": "TATTCCACGTGAGGTT", "relative binding free energy": 0.25}, {"sequence": "AGGGGCACGTGTAATG", "relative binding free energy": -0.09}, {"sequence": "GAGAGCACGTGTAGGG", "relative binding free energy": -0.18}, {"sequence": "GAATTCACGTGTTTGT", "relative binding free energy": 0.38}, {"sequence": "GATGTCACGTGTATCT", "relative binding free energy": 0.23}, {"sequence": "ACTTTCACGTGGATGG", "relative binding free energy": 0.27}, {"sequence": "TGGTTCACGTGGTCCA", "relative binding free energy": 0.23}, {"sequence": "AGGTACACGTGGAGGC", "relative binding free energy": 0.03}, {"sequence": "TTTCTCACGTGCAGGT", "relative binding free energy": 0.27}, {"sequence": "TTTGTCACGTGTAGAG", "relative binding free energy": 0.1}, {"sequence": "GTTTACACGTGAATGG", "relative binding free energy": 0.35}, {"sequence": "GTTGACACGTGGTTTC", "relative binding free energy": 0.12}, {"sequence": "AGCAGCACGTGTTGTG", "relative binding free energy": -0.1}, {"sequence": "CGTTGCACGTGGGATA", "relative binding free energy": -0.02}, {"sequence": "TCGGGCACGTGATAAT", "relative binding free energy": 0.13}, {"sequence": "AATGTCACGTGATAGA", "relative binding free energy": 0.21}, {"sequence": "GTAATCACGTGAAGGA", "relative binding free energy": 0.37}, {"sequence": "TCTTACACGTGGTGAT", "relative binding free energy": 0.17}, {"sequence": "AGGTCCACGTGTTGAG", "relative binding free energy": 0.19}, {"sequence": "CAGTTCACGTGTCGTG", "relative binding free energy": 0.48}]}]}
